Publication PMC4336329 (PLoS ONE, 2015)
The whole screen tested about 310,000 compounds, of which about 2,200 (0.71%) showed an effect of 50% or more. The effect is printed as a negative number. This is one part of the list.

Molecular target: human ether-à-go-go-related gene (hERG) potassium channel (human, UniProt Q12809)
Test: primary screen, population patch clamp on CHO cells stably expressing hERG

human ether-à-go-go-related gene (hERG) potassium channel, sequence (Q12809 whole entry, looked up): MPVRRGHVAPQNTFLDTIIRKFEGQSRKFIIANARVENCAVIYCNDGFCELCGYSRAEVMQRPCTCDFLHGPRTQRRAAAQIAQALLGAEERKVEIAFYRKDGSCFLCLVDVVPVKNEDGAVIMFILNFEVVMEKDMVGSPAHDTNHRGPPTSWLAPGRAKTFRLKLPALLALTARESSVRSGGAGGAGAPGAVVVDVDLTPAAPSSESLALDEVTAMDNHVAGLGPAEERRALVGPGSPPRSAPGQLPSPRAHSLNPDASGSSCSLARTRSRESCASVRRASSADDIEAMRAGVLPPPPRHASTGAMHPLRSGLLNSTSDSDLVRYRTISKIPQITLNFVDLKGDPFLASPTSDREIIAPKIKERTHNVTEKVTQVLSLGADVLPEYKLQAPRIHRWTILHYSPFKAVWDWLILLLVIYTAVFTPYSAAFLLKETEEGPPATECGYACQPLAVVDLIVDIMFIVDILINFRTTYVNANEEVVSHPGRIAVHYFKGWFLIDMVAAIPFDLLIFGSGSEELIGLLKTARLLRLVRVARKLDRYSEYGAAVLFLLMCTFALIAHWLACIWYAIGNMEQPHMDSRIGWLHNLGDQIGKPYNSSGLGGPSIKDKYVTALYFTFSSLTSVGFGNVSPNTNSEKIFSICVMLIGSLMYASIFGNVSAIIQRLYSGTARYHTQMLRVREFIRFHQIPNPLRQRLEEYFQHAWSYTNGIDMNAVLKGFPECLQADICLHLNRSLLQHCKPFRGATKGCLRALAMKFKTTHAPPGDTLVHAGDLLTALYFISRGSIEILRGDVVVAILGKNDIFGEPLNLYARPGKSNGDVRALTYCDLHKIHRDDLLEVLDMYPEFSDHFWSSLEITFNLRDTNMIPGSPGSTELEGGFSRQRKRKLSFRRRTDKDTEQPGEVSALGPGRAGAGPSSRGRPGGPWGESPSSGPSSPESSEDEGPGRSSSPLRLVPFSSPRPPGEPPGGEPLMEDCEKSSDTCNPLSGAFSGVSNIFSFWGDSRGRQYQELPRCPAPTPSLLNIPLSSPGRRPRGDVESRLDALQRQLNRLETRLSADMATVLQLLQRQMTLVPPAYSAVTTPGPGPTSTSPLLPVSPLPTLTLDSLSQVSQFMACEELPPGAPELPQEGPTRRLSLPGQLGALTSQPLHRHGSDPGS

Row | Compound | hERG current change (%, negative = inhibition) at 1uM [%]
1 | O=C(COc1cccnc1[N+](=O)[O-])N1CCN(C(=O)c2ccco2)CC1 | 0.106
2 | C/C(Cl)=C/Cn1c(SCC(C)C)nc2c1c(=O)[nH]c(=O)n2C | 10
3 | N=C1/C(=C\c2ccc(OC(=O)c3ccc(F)cc3)cc2)C(=O)N=C2SC(N3CCOCC3)=NN12 | 13.1
4 | CCNc1ccc2noc3c2c1C(=O)c1ccccc1-3 | 10.7
5 | CCOCc1cc(C)[nH]c(=O)c1C#N | 2.48
6 | CCCC(C)c1nnc(NC(=O)C(=O)OCC)s1 (stereo not drawn) | 6.89
7 | CN1CCN(C(=O)C2=C[C@@H](c3csc4ccccc34)C[C@@H](OCc3ccc(CO)cc3)O2)CC1 | -0.559
8 | O=C(CN1C(=O)NC2(CCCCCCC2)C1=O)N1CCN(C(=O)c2ccco2)CC1 | 5.61
9 | NC(=O)NC(CC(=O)NCCc1ccc(S(N)(=O)=O)cc1)c1ccc(Cl)cc1 (stereo not drawn) | 11.7
10 | CC(=O)Nc1ccc(C(=O)NC(C)c2ccc(-n3ccnc3)cc2)cc1 (stereo not drawn) | 13.2
11 | CCc1ccc(CNC(=O)CN2C(=O)COc3ccccc32)cc1 | 3.96
12 | COc1ccc(-c2cnc3ccccc3n2)cc1NC(=O)CNC(=O)c1ccccc1 | 18.7
13 | COC(=O)c1[nH]c2ccc(F)cc2c1NS(=O)(=O)c1ccc(OC)cc1OC | 7.51
14 | CC1(C)CC(=O)C2=C(C1)Nc1ccccc1NC2c1ccccc1F (stereo not drawn) | 15
15 | CC(C)NC(=O)c1ccccc1-c1ccccc1 | 13.4
16 | COc1ccccc1N1CCN(c2cnccn2)CC1 | 5.09
17 | COC(=O)c1nnn(CC(=O)Nc2cc(Cl)ccc2C)c1C(=O)OC | 9.03
18 | COCc1nnc(NC(=O)CCc2ccccc2)s1 | -3.48
19 | COc1ccc(Oc2coc3cc(O)ccc3c2=O)cc1 | 3.97
20 | CC1CC(=O)Nc2ccccc2N1C(=O)CSc1ncnc2sccc12 (stereo not drawn) | 3.79

Row | Compound | hERG current change (%, negative = inhibition) at 1uM [%]
21 | COc1ccc(/C=C/C(=O)N2CCCc3ccccc32)cc1 | 3.31
22 | COc1ccc(NC(=O)C2CCCO2)cc1 (stereo not drawn) | 5.09
23 | CC(=O)Nc1ccc2c(c1)C(C)(C)C(C)N2C (stereo not drawn) | 8.51
24 | COc1ccc(-n2c(C)c(C(C)=O)c3cc(OC(C)=O)ccc32)cc1 | 21.1
25 | CCc1ccc(OCC(=O)N/N=C\c2ccco2)c([N+](=O)[O-])c1 | -0.899
26 | CN(CC(=O)Nc1ccc(S(=O)(=O)N2CCOCC2)cc1)Cc1ccc(F)cc1 | 6.46
27 | CC(C)c1nnc(SCC(=O)N2CCc3ccccc32)n1N | 11.4
28 | Cc1cccc(NC(=O)COC(=O)CCc2ccccc2)c1C | 12.5
29 | Cc1cc(C(=O)COC(=O)c2ccc([N+](=O)[O-])o2)c(C)n1CC1CCCO1 (stereo not drawn) | -3.19
30 | COc1cccc(-c2ncc3ccccc3c2COC(=O)N2CCCCC2)c1 | 15.3
31 | COc1ccc(C(=O)CC(=O)C(=O)Nc2cccc([N+](=O)[O-])c2C)cc1 | 17.8
32 | Cc1ccc(CCNC(=O)c2nnc(CS(=O)(=O)c3ccccc3)o2)cc1 | 6.22
33 | CCOC(=O)N1CCN(C(=O)Cn2cnc3ccccc3c2=O)CC1 | 12.7
34 | Cc1nn(C)cc1S(=O)(=O)Nc1ccccc1Br | 17
35 | COc1ccc(-n2ncc3c(NCc4cccs4)ncnc32)cc1 | 8.61
36 | Cc1cc(=O)oc2cc(OC(C)C(=O)Nc3nccs3)ccc12 (stereo not drawn) | 0.489
37 | CNC(=O)C1CC(=O)N(c2ccc(F)c(Cl)c2)C1 (stereo not drawn) | 4.53
38 | O=c1c2ccccc2nc2n1CCN2Cc1ccc(Cl)cc1 | -4.95
39 | CC1(C)S/C(=N/N=C/c2cccs2)NC1=O | 7.83
40 | CCCCOC(=O)NS(=O)(=O)c1sc(CC(C)C)cc1-c1ccc(Cn2c(CC)nc3c(C)cc(C)nc32)cc1 | 11.6

Row | Compound | hERG current change (%, negative = inhibition) at 1uM [%]
41 | O=C(NCc1cccnc1)c1cn(CCc2ccccc2)nn1 | 5.53
42 | CCn1c(=O)c(C(C)=O)nc2ccccc21 | 2.78
43 | COc1ccc(C2NC(=O)CCC2[N+](=O)[O-])cc1 (stereo not drawn) | 19.2
44 | O=c1cc(-c2ccccc2)c2c(O)cc(O)cc2o1 | 3.67
45 | COC(=O)c1ccc(C(=O)OC)nc1 | 15
46 | CCOC(=O)c1ccc(NC(=S)NCCc2ccc(OC)c(OC)c2)cc1 | 8.09
47 | CCOc1ccc(/C(C)=N/NC(=O)C(OC)c2ccccc2)cc1 (stereo not drawn) | 10.8
48 | COc1ccccc1CCNS(=O)(=O)CCNC(=O)c1ccccc1 | 6.75
49 | O=C(CN(C(=O)c1csnn1)c1cccc2c1CCCC2)NC1CCCC1 | 13.1
50 | C=CCNC(=O)CCc1nnc(C2(c3ccc(Cl)cc3)CCC2)o1 | 14.3
51 | O=C(Cn1cccn1)c1ccccc1 | 14.3
52 | CN(C)S(=O)(=O)Nc1cccc(Br)c1 | 3.24
53 | O=C(Nc1cccc(F)c1)Nc1ccc(Cl)cn1 | 1.67
54 | COc1ccc(OCC(=O)Nc2ccc3c(c2)nc(CCN2CCCC2)n3C)cc1 | 0.42
55 | O=C1C=C(c2ccc(Cl)c(C(F)(F)F)c2)C[C@@H](c2ccc(F)cc2)C1 | 15.8
56 | O=C(c1ccccn1)N1CCCC(N2CCN(c3cccc(C(F)(F)F)c3)CC2)C1 (stereo not drawn) | -2.23
57 | COC(=O)c1ccc(N=Cc2c(C(F)(F)F)[nH][nH]c2=O)cc1 | 13.1
58 | CCOC(=O)c1sc2nc(COC(=O)c3c(F)cccc3F)[nH]c(=O)c2c1C | -2.14
59 | O=C(CN1CCCCC1)Nc1nnc(-c2ccc([N+](=O)[O-])cc2)s1 | 3.36
60 | NC(=S)N/N=C/c1ccccc1OCc1cccc(Cl)c1 | 0.752
